Out of some 16,000 compounds screened, about 120 (0.75%) were called active. Not shown: some 4% with an inconclusive outcome. The call rests on the fitted dose curve; in most records, active means well fitted inhibition curve with a large enough effect; inconclusive means small, poorly fitted or top-dose-only effect; inactive means no such curve, though single readings can be large or run the other way. Some of the results follow.
biological target: Rap guanine nucleotide exchange factor 3 (Homo sapiens) (UniProt O95398); assay: Validation qHTS for antagonist of cAMP-regulated guanine nucleotide exchange factor 3 (EPAC1); settings: EPAC1 Rap1B-BODIPY-GDP exchange, fluorescence; series mostly up to 150 µM; activity change, negative = inhibition: at the top concentration; further: nearly all actives have a fitted effect of over 75% in size;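 on activity change, negative = inhibition: plate controls were DMSO for no effect and ATA control for full effect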
UniProt O95398, sequence (O95398 whole entry, looked up): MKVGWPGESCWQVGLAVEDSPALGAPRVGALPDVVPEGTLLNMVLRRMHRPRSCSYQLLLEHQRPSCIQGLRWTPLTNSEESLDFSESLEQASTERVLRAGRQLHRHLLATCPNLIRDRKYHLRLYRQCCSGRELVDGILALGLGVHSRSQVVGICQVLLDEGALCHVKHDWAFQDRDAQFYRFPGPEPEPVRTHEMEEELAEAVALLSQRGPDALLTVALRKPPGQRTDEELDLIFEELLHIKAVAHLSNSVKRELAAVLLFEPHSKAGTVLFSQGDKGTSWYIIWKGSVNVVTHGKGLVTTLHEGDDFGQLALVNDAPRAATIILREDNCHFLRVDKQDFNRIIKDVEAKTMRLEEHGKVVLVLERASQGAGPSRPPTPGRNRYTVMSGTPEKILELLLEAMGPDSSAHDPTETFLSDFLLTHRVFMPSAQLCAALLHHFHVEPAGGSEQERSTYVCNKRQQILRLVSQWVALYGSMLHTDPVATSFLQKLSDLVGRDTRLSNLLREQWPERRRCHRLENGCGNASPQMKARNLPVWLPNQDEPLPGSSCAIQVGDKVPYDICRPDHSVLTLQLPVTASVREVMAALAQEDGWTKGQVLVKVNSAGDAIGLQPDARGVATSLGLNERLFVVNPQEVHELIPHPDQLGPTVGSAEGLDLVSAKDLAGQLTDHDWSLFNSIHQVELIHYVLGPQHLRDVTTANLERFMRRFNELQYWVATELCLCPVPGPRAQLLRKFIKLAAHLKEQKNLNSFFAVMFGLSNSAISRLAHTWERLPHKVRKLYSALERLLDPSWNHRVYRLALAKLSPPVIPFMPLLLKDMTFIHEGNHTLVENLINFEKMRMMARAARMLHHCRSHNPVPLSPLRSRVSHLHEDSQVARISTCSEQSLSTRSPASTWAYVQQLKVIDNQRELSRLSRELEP
In short: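 Nucleotide exchange followed as fluorescence loss when BODIPY-GDP leaves Rap1B (480 nm excitation, 540 nm emission), read at 5 min intervals over 30 min. Reaction: 100 nM EPAC1, 250 nM RAP1B-BODIPY-GDP, 50 uM GDP; ATA and DMSO define normalization.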
Potency means the concentration at half of the fitted maximal effect.

SMILES | activity change, negative = inhibition | Potency
CCOC(=O)[C@@H](N)CS | inactive: -14.8% | 
Oc1ccc(Cl)cc1Cc1cc(Cl)ccc1O | inactive: -12.4% | 
NS(=O)(=O)c1cc(C(=O)O)c(NCc2ccco2)cc1Cl | inactive | 
CCc1ccc(S(=O)(=O)O)cc1 | inactive: -8.42% | 
COCCn1c(=O)c(C)nc2cnc(N3CCN(C)CC3)nc21 | inactive: 16.4% | 
CCCCC/C=C\CC(O)/C=C/c1cccc(CC(O)CCCCO)n1 (stereo not given) | inactive: -8.73% [at 75.8 µM] | 
CC1=CC2C(C(C)C)CCC(C)(O)C2CC1 (stereo not given) | inactive: 7.33% | 
CC[C@@]1(O)C(=O)OCc2c1cc1n(c2=O)Cc2cc3c([N+](=O)[O-])cccc3nc2-1 | inactive: -8.03% | 
CS(=O)(=O)c1ccc([C@@H](O)[C@@H](COC(=O)CN)NC(=O)C(Cl)Cl)cc1 | inactive: 7.83% | 
COC(=O)[C@H]1[C@H]2C[C@@H]3c4[nH]c5cc(OC)ccc5c4CCN3C[C@H]2C[C@@H](OC(=O)COc2ccc(OC)cc2)[C@@H]1OC | inactive: -9.7% | 
c1ccc2c(N3CCNCC3)nc(-c3ccoc3)nc2c1 | inactive: 14.2% | 
NC(C(=O)O)c1ccc(P(=O)(O)O)cc1 (stereo not given) | inactive: 8.63% | 
Cc1ccc(CN2CCC(=O)N(Cc3ccccn3)CC2)c(C)c1 | inactive: 12.6% | 
Cn1c(=O)c2[nH]c(C3CCCC3)nc2n(C)c1=O | inactive | 
NC(=O)C1CCCN(Cc2ccc3c(c2)CN(Cc2ccccc2)CCO3)C1 (stereo not given) | inactive: -11.4% | 
COc1ccc(NC(=O)N2CC[C@@]3(CCCN(C(=O)c4c(C)noc4C)C3)C2)cc1 | inactive: 13.4% | 
CC(=O)c1ccc(F)c(-c2cc(C)cc3c2OC(CNC(=O)Cn2nc(C)nc2C)C3)c1 (stereo not given) | inactive: 12.9% | 
COCCCNC(=O)c1cnn(-c2ncc3c(n2)-c2ccccc2CCC3)c1C | inactive: -8.82% | 
CC(C)COCC(CN(Cc1ccccc1)c1ccccc1)N1CCCC1 (stereo not given) | inactive | 
O=C(Oc1ccccc1)N1CCC[C@@]2(CCN(c3ccccn3)C2)C1 | inactive: 10.1% | 
COc1ccc(CNc2ncnc3ccc(-c4ccccc4C#N)cc23)c(OC)c1 | inactive: -17.2% | 
NC(=O)c1ncn([C@@H]2O[C@H](CO)[C@@H](O)[C@H]2O)n1 | inactive | 
CCC(CC)(CC(=O)Nc1cccc(/C=C/c2nc(C3CCC3)cs2)c1)C(=O)O | inactive: 8.67% | 
O=C1CC(C(=O)N2CCOc3ccc(CN4CCC(Oc5cccnc5)CC4)cc3C2)c2ccccc21 (stereo not given) | inactive: 23.9% | 
COc1ccccc1CN1CCC2(CCNCC2)CC1 | inactive: -3.17% | 

SMILES | activity change, negative = inhibition | Potency
CN(C)c1ccc(C=O)c(Cl)c1 | inactive: -11.9% | 
CCn1nc(C)c(CN2CCC3(CCC(CNC(=O)c4ccccc4)O3)CC2)c1C (stereo not given) | inactive: 13.4% | 
COC(=O)/C=C/c1ccc2c(c1)S(=O)(=O)N(c1cccc(OC)c1)[C@H]2CC(=O)OC | inactive: -4.64% | 
CCOc1ccc2c(c1)C(C)=CC(C)(C)N2 | inactive | 
CCOC(=O)[C@H](CCc1ccccc1)N[C@@H](C)C(=O)N1[C@H](C(=O)O)C[C@@H]2CCC[C@@H]21 | inactive: 6.45% | 
COCCn1c(=O)c(-c2cccs2)nc2cnc(OCc3ccccc3)nc21 | inactive: 14.7% | 
COc1ccc(C2COc3c(ccc(O)c3OC)C2)c(OC)c1O (stereo not given) | inactive: -9.01% | 
COc1cc(=O)n2c(c1C(=O)N(C)Cc1nccs1)CCN(Cc1cccc(F)c1F)CC2 | inactive: 4.97% | 
COc1ncc2nc(-c3cn(C)c4ccccc34)c(=O)n(CCC#N)c2n1 | inactive: 22.2% | 
COc1ccccc1CC(=N)N1C[C@@H]2C(=O)CCC(c3ccccc3)(c3ccccc3)[C@@H]2C1 | inactive: 6.77% | 
CNS(=O)(=O)Cc1ccc2[nH]cc(CCN(C)C)c2c1 | inactive: 18.8% | 
O=c1c(O)c(-c2ccc(O)c(O)c2)oc2cc(O)ccc12 | inactive | 
Cc1nc2cnc(N3CCN(C)CC3)nc2n(C)c1=O | inactive: 0.32% | 
Cc1nc(C)n(CC(=O)NCC2Cc3cc(-c4ccsc4)cc(Cl)c3O2)n1 (stereo not given) | inactive: 22% | 
CN(C)c1ncc2nc(CCc3ccccc3)c(=O)n(C3CC3)c2n1 | inactive: -21.3% | 
CC(C)C[C@@H](CO)N1CCN(Cc2cccnc2)CCC1=O | inactive: 12.4% | 
Cc1cnc(-n2ncc(C(=O)NCCN3CCOCC3)c2-c2cccs2)nc1-c1ccc(F)cc1 | inactive: 14.9% | 
COC1C[C@@H](O[C@@H]2C(C)C(=O)OC(C)C(C)C(O)C(C)C(=O)[C@@]3(CO3)CC(C)C(OC3OC(C)CC(N(C)C)C3O)C2C)OC(C)[C@@H]1O (stereo not given in full) | inactive: 13.3% | 
Cn1c(=O)c(-c2cccs2)nc2cnc(Oc3ccccc3)nc21 | inactive: 10.7% | 
O=C1CCC(c2ccccc2)(C2CCN(Cc3ccccc3)CC2)C(=O)N1 (stereo not given) | inactive | 
COc1ccc(C(=O)N2CCC[C@@]3(CCN(Cc4ccc(C#N)cc4)C3)C2)cc1 | inactive: 13.3% | 
CCCN1CCC(=O)N([C@H](CSc2ccccc2)CC(C)C)CC1 | inactive: 7.13% | 
CC1=C(/C=C/C(C)=C/C=C/C(C)=C/C(=O)Oc2c(C)c(C)c3c(c2C)CC[C@@](C)(CCC[C@H](C)CCC[C@H](C)CCCC(C)C)O3)C(C)(C)CCC1 | inactive: 8.34% | 
Cc1cccc(CNc2nc(-c3c(C)noc3C)nc3ccccc23)c1 | inactive: 21.3% | 
COc1ccc2c(c1)CCC1C2CC[C@@]2(C)C1CC[C@@H]2NCCCCCCN1C(=O)C=CC1=O (stereo not given in full) | inactive: -11.2% [at 75.8 µM] | 

SMILES | activity change, negative = inhibition | Potency
O=S1(=O)CCOC[C@H](c2ccccc2)N1Cc1ccc(Cl)cc1Cl | inactive: -12.4% | 
CC(=O)SCC[N+](C)(C)C | inactive: -7.24% [at 75.8 µM] | 
NC(=O)Cc1cccc(C(=O)c2ccccc2)c1N | inactive: 14.4% | 
CN(Cc1ccco1)c1ncncc1-c1ccccc1Cl | inactive: 4.12% | 
O=C(Nc1ccccc1)O[C@@H]1C[C@H]2CCC(=O)N3CC[C@@H](C1)[C@@H]23 | inactive: -0.844% | 
O=C(Nc1nc2ccccc2n1CCN1CCOCC1)c1cccc([N+](=O)[O-])c1 | inactive: 8.52% [at 75.8 µM] | 
O=C(c1ccco1)N1CCC2(CC1)CCN(c1ccncc1)CC2 | inactive: 17.7% | 
Cc1ccccc1-c1cc(NCc2cccnc2)ncn1 | inactive: 13.2% | 
CC(C)COC(=O)OCN1C(=O)CN(CCN2CC(=O)N(COC(=O)OCC(C)C)C(=O)C2)CC1=O | inactive | 
Cc1onc(-c2ccc3c(c2)OCO3)c1-c1ccc2[nH]ccc2c1 | inactive: -3.69% | 
COc1ccc(-n2c(=O)c(-c3cn(C)c4ccccc34)nc3cncnc32)cc1 | inactive: -25.1% | 
O=[N+]([O-])c1ccc2c(c1)S(=O)(=O)C=C2 | inactive: 29.5% [at 75.8 µM] | 
C=CC1=C(C(=O)O)N2C(=O)[C@@H](NC(=O)/C(=N/OCC(=O)O)c3csc(N)n3)[C@H]2SC1 (stereo in doubt) | inactive: -6.88% [at 75.8 µM] | 
Clc1ccccc1-c1ccc2ncnc(NCc3cccnc3)c2c1 | inactive: 2.4% | 
N#Cc1cccc(-c2nc3cnc(N4CCNCC4)nc3n(C3CC3)c2=O)c1 | inactive: -21.9% | 
CN(C)CCC(O)(c1ccccc1)c1ccccc1Cl (stereo not given) | inactive: 9.41% | 
COc1ccc(-c2cn(Cc3ccc(C)cc3)nn2)cc1 | inactive: 14.5% | 
CCN1CCCC1CNC(=O)c1cnn(-c2nccc(-c3cc4ccccc4o3)n2)c1C1CC1 (stereo not given) | inactive: 14.2% | 
c1ccc(C(c2ccccc2)N2CC[C@@]3(CCCNC3)C2)cc1 | inactive: 18.6% | 
N=C1N=C(N)c2cc3ccccc3cc21 | inactive: 32.8% [at 320 µM] | 
COCCn1c(=O)c(-c2cccc(C#N)c2)nc2cnc(OC)nc21 | inactive: -7.25% | 
Nc1ccc(-c2ccc3ccccc3n2)cc1 | inactive: 18.3% [at 75.8 µM] | 
CC[C@]1(O)C[C@H]2CN(CCC3=c4ccccc4=N[C]3[C@@](C(=O)OC)(c3cc4c(cc3OC)N(C)[C@H]3[C@@](O)(C(N)=O)[C@H](O)[C@]5(CC)C=CCN6CC[C@]43[C@@H]65)C2)C1 | inactive: 22.8% | 
CCn1c(-c2cccnc2)nc2cc(NC(=O)COC)cc(C(=O)N3CC[C@@H]4CCCC[C@H]4C3)c21 | inactive: 4.7% | 
O=[N+]([O-])c1cccc(S(=O)(=O)NCCNS(=O)(=O)c2cccc([N+](=O)[O-])c2)c1 | inactive: -10.9% | 

SMILES | activity change, negative = inhibition | Potency
COc1[nH]c2ccc(F)cc2c1C(=O)OCC1CCN(CCNS(C)(=O)=O)CC1 | inactive: 5.48% | 
COc1ccccc1-n1cc(CN2CCOc3ccc(CN4C[C@@H](C)O[C@@H](C)C4)cc3C2)cn1 | inactive: 0.205% | 
COc1cccc(-c2cnc(-c3ccncc3)nc2C2CCN(C(=O)Cc3csc(C)n3)CC2)c1 | inactive: 3.53% | 
CN1CCN(c2ncc3nc(-c4ccccc4)c(=O)n(CCc4ccccc4)c3n2)CC1 | inactive: -9.1% | 
Cc1cc(N)c2cc(NC(=O)Nc3ccc4nc(C)cc(N)c4c3)ccc2n1 |  | active: 28.2 µM
CCn1c(-c2ccccc2F)nc2cc(NC(C)=O)cc(C(=O)N3CCCCC3c3nccn3C)c21 (stereo not given) | inactive: 5.39% | 
CN(C)c1c(Cl)cc(/C=C/c2ccnc3ccccc23)cc1Br | inactive: -4.78% | 
CN(C)/N=N/c1nc[nH]c1C(N)=O | inactive | 
COc1ccc(CNc2ncnc3ccc(-c4cccc(NS(C)(=O)=O)c4)cc23)c(OC)c1 | inactive: -18.4% | 
Cc1nc2cnc(N3CCN(C)CC3)nc2n(C[C@H]2CCCO2)c1=O | inactive: 8.63% | 
CCCCCC1Nc2cc(C(F)(F)F)c(S(N)(=O)=O)cc2S(=O)(=O)N1 (stereo not given) | inactive: 22.1% | 
Cc1cc(C(=O)Nc2cccc(-c3nc(CNC(=O)c4cc5ccccc5[nH]4)c(C)o3)c2)c(C)o1 | inactive: 15.4% | 
CCCCOC(=O)c1ccc(N)cc1 | inactive: -2.29% | 
CCCCC[C@H](O)/C=C/[C@H]1C=CC(=O)[C@@H]1CCCCCCC(=O)O | inactive: 29.3% [at 15.3 µM] | 
NCCCCCCNS(=O)(=O)c1ccc2c(Cl)cccc2c1 | inactive: 18.5% | 
CN1CCCCCC1C(=O)NCCN1Cc2ccccc2OC(c2ccsc2)C1 (stereo not given) | inactive: 17.3% | 
O=C(Nc1ccc(C(=O)O)c(O)c1)c1ccccc1 | inactive: 4.9% | 
Clc1ccccc1-c1nc(NCCN2CCOCC2)c2ccccc2n1 | inactive: 7.34% | 
Cc1ccccc1-c1cc(NCCN2CCOCC2)ncn1 | inactive: 6.74% | 
C[N+]1(CC(=O)c2ccc(Cl)cc2)CCOCC1 | inactive: 20.7% | 
O=C(O)CCC/C=C\C[C@@H]1[C@@H](/C=C/[C@@H](O)COc2cccc(C(F)(F)F)c2)[C@H](O)C[C@@H]1O | inactive: 4.3% | 
C[C@@H](CSc1ccccc1)CN1CC[C@H](NC(=O)OCc2ccccc2)CCC1=O | inactive: -14.1% | 
COCCNc1ncnc2ccc(-c3cccnc3)cc12 | inactive: 6.05% | 
COc1cccc(-c2nc3cc4c(cc3cc2CN(C(=O)c2cccs2)C2CC2)CCC4)c1OC | inactive: -9.11% | 
COc1ccc(Cc2cnc(N)nc2N)cc1OC | inactive: 5.06% | 

From PubChem BioAssay AID1645882 (National Center for Advancing Translational Sciences (NCATS), 2021)
